Results reported in PubChem BioAssay AID1768 (National Center for Advancing Translational Sciences (NCATS), 2009).
Among all 270,000 compounds or so, about 620 (0.23%) were called active. The inconclusive results got no clear call from the source; some entries with a clear call stand among them for comparison. The call rests on the fitted dose curve; in most records, active means well fitted inhibition curve with a large enough effect in the polarisation, with a control signal flat (not every such curve was filed as active); inconclusive means small, poorly fitted or top-dose-only effect, or effect the other way, or a change in a side signal; inactive means no such curve, though single readings can be large or run the other way; the % refers to the polarisation. Potencies beside an inconclusive call are fits to weak or partial responses and may not hold up. “Side channel” marks fits to a control or component signal instead of the main read-out.
Potency means the concentration at half of the fitted maximal effect; tags describe the fitted curve by direction and shape or compound fluorescence and quenching.
Wherever FP activity change, negative = inhibition is given: % of control where 0% means no effect.

These compounds were tested against Menin (Homo sapiens) (UniProt O00255) (assay: qHTS Assay for Inhibitors Targeting the Menin-MLL Interaction in MLL Related Leukemias: Competition With Texas Red Labeled MLL-derived Mutant Peptide). Settings: fluorescence polarization; FP activity change, negative = inhibition: at 61.6 µM (top of the series).
UniProt O00255, sequence (O00255 whole entry, looked up): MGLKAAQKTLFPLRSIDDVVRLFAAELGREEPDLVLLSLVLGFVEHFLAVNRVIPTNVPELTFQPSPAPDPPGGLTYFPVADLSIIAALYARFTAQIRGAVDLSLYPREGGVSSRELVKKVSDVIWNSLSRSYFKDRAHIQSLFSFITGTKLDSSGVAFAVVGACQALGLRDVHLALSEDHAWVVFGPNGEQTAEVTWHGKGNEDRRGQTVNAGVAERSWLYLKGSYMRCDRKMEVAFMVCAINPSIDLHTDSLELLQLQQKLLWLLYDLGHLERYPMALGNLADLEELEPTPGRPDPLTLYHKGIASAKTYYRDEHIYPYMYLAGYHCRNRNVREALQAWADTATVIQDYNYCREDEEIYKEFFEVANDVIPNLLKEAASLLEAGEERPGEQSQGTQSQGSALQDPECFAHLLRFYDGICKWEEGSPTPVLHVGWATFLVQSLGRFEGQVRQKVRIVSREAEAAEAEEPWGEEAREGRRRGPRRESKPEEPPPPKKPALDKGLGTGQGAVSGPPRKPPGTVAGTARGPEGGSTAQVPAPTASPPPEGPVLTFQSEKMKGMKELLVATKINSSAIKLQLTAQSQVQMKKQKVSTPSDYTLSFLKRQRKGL
`COc1ccc(-c2nc(C#N)c(N3CCN(c4cccc(Cl)c4)CC3)o2)cc1OC` was tested, and the Potency was “inactive”.
With `O=C(CSc1ccncc1)Nc1ccc(S(=O)(=O)Nc2nccs2)cc1` the Potency was “inactive”.
In the case of `Cc1nnc(-c2ccccc2)c(=O)n1/N=C/c1c(O)ccc2ccccc12`, the Potency is reported as inconclusive: 8.91 µM [quencher, side channel, partial curve].
With `N#Cc1nc(-c2ccccc2Cl)oc1N1CCCCC1` the Potency was “inactive”.
With `CCOC(=O)Cn1c(CN(Cc2ccccc2)Cc2ccccc2)nc2c1c(=O)[nH]c(=O)n2C` the Potency was inconclusive: 3.55 µM [inhibitor, full curve].
`CC1(C)CC2CN(C(=O)Cc3ccccc3)C(C)(C2)C1` (configuration not stated) was tested, and the Potency was inconclusive: 4.47 µM [inhibitor, single point].
`COc1ccc2nc(C)c(C(N)=O)cc2c1` was tested, and the Potency was “inactive”.
In the case of `CCn1c(SC)nnc1C1CCN(S(=O)(=O)c2ccc(OC)cc2)CC1`, the Potency is reported as inconclusive: 39.8 µM [inhibitor, single point].
In the case of `CCCC(c1nnnn1C(C)(C)C)N1CCN(Cc2ccccc2OC)CC1` (configuration not stated), the Potency is reported as inconclusive: 39.8 µM [inhibitor, single point].
In the case of `CC1CCc2sc3ncnc(N4CCN(C)CC4)c3c2C1` (configuration not stated), the Potency is reported as inconclusive: 12.6 µM [fluorescent, side channel, partial curve].
In the case of `C/C(=N\Nc1nnc2c3ccccc3n(C)c2n1)c1ccc(C)o1`, the Potency is reported as inconclusive: 28.2 µM [quencher, side channel, single point].
For `CCNc1c(NS(=O)(=O)c2ccc(F)c(Cl)c2)c(=O)oc2ccccc12`, the Potency was inconclusive: 35.5 µM [fluorescent, single point].
With `O=C(O)c1cc(-c2cccc(Cl)c2)nc2nc(N3CCCCC3)sc12` the Potency was inconclusive: 35.5 µM [quencher, side channel, partial curve].
`CC(=O)OCC(NC(=O)C(COCc1ccccc1)NC(=O)OC(C)(C)C)C1OC(n2cc(C)c(=O)[nH]c2=O)C(OC(C)=O)C1OC(C)=O` (configuration not stated) was tested, and the Potency was “inactive”.
With `CCCN(CCC)C(=O)CC(c1ccccc1)c1ccc(C)cc1O` (configuration not stated) the Potency was inconclusive: 1.26 µM [fluorescent, side channel, full curve, poor fit].
`O=C(NCCc1c[nH]c2ccccc12)c1cc2sccc2n1Cc1ccccc1` was tested, and the Potency was inconclusive: 3.16 µM [quencher, side channel, full curve].
In the case of `O=C(Nc1cccc(-c2cnc3ccccc3n2)c1)c1cccc(NC(=O)c2ccco2)c1`, the Potency is reported as inconclusive: 5.01 µM [quencher, side channel, full curve].
In the case of `NC(=O)NC(=O)COC(=O)c1ccccc1Oc1ccccc1`, the Potency is reported as inconclusive: 35.5 µM [fluorescent, side channel, single point].
In the case of `CCOC(=O)C1=C(C)N=c2s/c(=C3\C(=O)Nc4ccccc43)c(=O)n2C1c1ccc2c(c1)OCO2` (configuration not stated), the Potency is reported as inconclusive: 31.6 µM [quencher, side channel, single point].
For `CCNS(=O)(=O)c1ccc(CCC(=O)NCCC2=CCCCC2)cc1`, the Potency was “inactive”.
In the case of `COc1ccc2[nH]c3c(N4CCC(O)(c5cccc(C(F)(F)F)c5)CC4)ncnc3c2c1`, the Potency is reported as inconclusive: 25.1 µM [quencher, side channel, single point].
For `COc1ccc(-c2csc(Nc3ccccn3)n2)cc1OC`, the Potency was inconclusive: 20 µM [quencher, side channel, partial curve].
For `Cc1oc(-c2ccc(Cl)cc2)nc1CN1CCC(C(=O)NCc2cccnc2)CC1`, the Potency was inconclusive: 39.8 µM [inhibitor, single point].
With `C/C(=N\Nc1ccc(Cl)cc1)c1ccccn1` the Potency was inconclusive: 25.1 µM [quencher, side channel, single point].
For `Cc1ccc(S(=O)(=O)Nc2c(Cl)c(Cl)c(O)c3ccccc23)cc1`, the Potency was inconclusive: 20 µM [quencher, side channel, single point].
In the case of `Cc1ccc(OCCNC(=O)c2ccccc2F)cc1`, the Potency is reported as inconclusive: 39.8 µM [inhibitor, single point].
For `S=C(NCCc1c[nH]c2ccccc12)NC1CCCCC1`, the Potency was inconclusive: 15.8 µM [quencher, side channel, partial curve].
In the case of `Cn1ccnc1SCC(=O)NC12CC3CC(CC(C3)C1)C2`, the Potency is reported as inconclusive: 1.78 µM [inhibitor, partial curve].
For `CCOC(=O)C(Oc1ccc2c(-c3ccc(OC)cc3)cc(=O)oc2c1C)c1ccccc1` (configuration not stated), the Potency was inconclusive: 1.26 µM [fluorescent, side channel, full curve, poor fit].
With `CCn1c(COc2cc(C)ccc2C(C)C)nnc1SCC(=O)Nc1nccs1` the Potency was inconclusive: 1.58 µM [inhibitor, partial curve, poor fit].
`C/C(=N/NC(=O)CNS(=O)(=O)c1ccccc1)c1ccc(Br)cc1` was tested, and the Potency was inconclusive: 35.5 µM [fluorescent, side channel, single point].
`CC(=O)N1CCc2cc(S(=O)(=O)NC(C(=O)NC3CCCc4ccccc43)C(C)C)ccc21` (configuration not stated) was tested, and the Potency was inconclusive: 15.8 µM [fluorescent, side channel, partial curve].
`O=C(Nc1ccccc1C(=O)Nc1ccccn1)c1ccc([N+](=O)[O-])cc1` was tested, and the Potency was inconclusive: 20 µM [quencher, side channel, partial curve].
`COc1ccc(N(C(=O)c2cccc([N+](=O)[O-])c2)S(=O)(=O)c2cccs2)cc1` was tested, and the Potency was inconclusive: 20 µM [quencher, side channel, partial curve].
In the case of `C=CCN(C(=O)Cc1cccs1)c1nc(-c2ccc(S(C)(=O)=O)cc2)cs1`, the Potency is reported as inconclusive: 8.91 µM [quencher, side channel, partial curve].
For `Cc1cc(C)c(S(=O)(=O)Nc2cc(SCC(=O)O)c(O)c3ccccc23)cc1C`, the Potency was inconclusive: 12.6 µM [quencher, side channel, partial curve].
In the case of `OC(CN1CCN(c2ncc(C(F)(F)F)cc2Cl)CC1)c1ccccc1` (configuration not stated), the Potency is reported as inconclusive: 10 µM [fluorescent, side channel, partial curve].
`COc1cc2c(cc1OC)C1=CC(=O)C(=O)N1C(C)(C)C2` was tested, and the Potency was inconclusive: 12.6 µM [fluorescent, side channel, partial curve].
For `O=C(Nc1nc(-c2ccc(Cl)s2)cs1)c1ccccc1`, the Potency was inconclusive: 14.1 µM [quencher, side channel, partial curve].
For `Oc1ccc(/C=C/c2ccc3cccc(O)c3n2)cc1Br`, the Potency was inconclusive: 17.8 µM [quencher, side channel, partial curve].
In the case of `CN1CCc2c(sc3c2c(=O)n(-c2ccccc2)c2nnc(SCc4ccc(Cl)cc4)n32)C1`, the Potency is reported as inconclusive: 14.1 µM [inhibitor, partial curve].
For `COC(=O)C/C=C\[C@@H](C)[C@@H](CO)NS(=O)(=O)c1ccc(C)cc1`, the FP activity change, negative = inhibition was inactive: -26.5% [at 11.7 µM].
With `O=C1c2ccccc2C(=O)N1CCc1csc(NNc2nc(CCN3C(=O)c4ccccc4C3=O)cs2)n1` the Potency was inconclusive: 8.91 µM [quencher, side channel, partial curve].
`O=C(c1ccc2nc(N3CCCCC3)sc2c1)N1CCN(c2ccccn2)CC1` was tested, and the Potency was inconclusive: 12.6 µM [fluorescent, side channel, partial curve].
For `CCC(=O)OC1C2CC3=C4CC(=O)OC(c5ccoc5)[C@]4(C)CCC3[C@@](C)(C2=O)C(CC(=O)OC)C1(C)C` (some centres not stated), the Potency was inconclusive: 3.98 µM [fluorescent, side channel, full curve].
With `O=C(Nc1cccc(NC(=O)c2cccs2)c1)c1ccc(Br)cc1` the Potency was inconclusive: 35.5 µM [quencher, side channel, single point].
With `C/C(=N\NC(=O)c1ccccc1)c1c(C)[nH]n(-c2ccccc2)c1=O` the Potency was inconclusive: 12.6 µM [quencher, side channel, partial curve].
In the case of `CCNCc1cc(Cl)c(OCc2ccccc2)c(OCC)c1`, the Potency is reported as inconclusive: 11.2 µM [fluorescent, side channel, partial curve].
For `COc1cccc(-c2c(C(=O)N/N=C/c3ccsc3)nnn2-c2nonc2N)c1`, the Potency was inconclusive: 12.6 µM [quencher, side channel, partial curve].
With `Fc1ccc(-n2[nH]nnc2=S)cc1N1CCCC1` the Potency was inconclusive: 31.6 µM [quencher, side channel, single point].
`COc1cccc(/C=C2/C(=O)NN(c3ccccc3)C2=O)c1` was tested, and the Potency was “inactive”.
In the case of `NNc1nc2sc3c(c2c(=O)[nH]1)CCc1ccccc1-3`, the Potency is reported as inconclusive: 10 µM [quencher, side channel, partial curve].
`Cn1cccc1/C=C1\CC(C(C)(C)C)C/C(=C\c2cccn2C)C1=O` (configuration not stated) was tested, and the Potency was “inactive”.
With `CCN(CC)S(=O)(=O)c1ccc(N/N=C/c2cc(OC)c(OC)cc2OC)nc1` the Potency was inconclusive: 10 µM [quencher, side channel, partial curve].
With `FC(F)(F)c1ccc(C2Nc3cccc4cccc(c34)N2)cc1` the Potency was inconclusive: 8.91 µM [quencher, side channel, full curve].
With `CCCC(=O)Nc1nc2c(ncn2[C@@H]2O[C@H]3COP(=O)(O)O[C@@H]3[C@@H]2OC(=O)CCC)c(=O)[nH]1` the Potency was inconclusive: 20 µM [inhibitor, single point].
For `CC(=O)c1sc(NC(=O)c2ccc(F)c(F)c2)nc1C`, the Potency was inconclusive: 28.2 µM [inhibitor, single point].
